Test results published in the supplement of paper PMC11417369.
± gives the standard deviation of the averaged measurements. This is one part of the list.

Test system: PfAP2-G AP2 domain (GST-tagged)
Assay: gcPBM binding intensity (ln(normalized median fluorescence intensity)); higher = stronger DNA binding
Method in brief: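 Binding of GST-tagged P. falciparum DNA-binding domains, expressed in E. coli and used at about 25 μg on average, was carried out for 1 h in 1× PBS containing 1% milk, 0.2 mg/ml BSA, 0.5% salmon testes DNA and 0.03% Triton X-100. The target was an Agilent 4 × 180k array of primer-extended double-stranded 36-bp intergenic genomic probes plus negative controls, read with Alexa488 anti-GST antibody at 488 nm. Binding intensity is the highest Masliner-normalised natural-log median intensity across replicate spots of either probe orientation.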

Row | Sequence | gcPBM binding intensity (ln)
1 | AAAGGAAAATGTGTAAAAAGAAATGCTAGGTATATA [GTGCAC_negctrl_site699] | 9.77 ± 0.27
2 | ATATATATATAATATAGTACGTATAATATATGAATC [XGTACX_site4385] | 11.2 ± 0.73
3 | ATATCATTTTCTAGCACACACATTGTTATTACCTTG [CACACA_site902] | 10.095 ± 0.007
4 | AGTCTGAATAAAATTACACACATATACAGATATATA [CACACA_site5054] | 9.8 ± 0.014
5 | TTTTTTTAAATATACACACACATTTATACAGATATA [CACACA_site5811] | 10.2 ± 0.27
6 | TTTCTAAAAATAAGAACACACACATATAAGCATATA [CACACA_site8714] | 10.12 ± 0.099
7 | TATTAGAACATATATGCATGCAATAGATATTCCAAT [TGCATGCA_site297] | 9.49 ± 0.16
8 | TATGTATAATTTCATTGTACTTTTGATATTATCATA [XGTACX_site280] | 11.2 ± 0.92
9 | AAGAAAAAGGAACGGAAAAACAAACAAGGGGCCCAA [TGCATGCA_negctrl_site4] | 10.8 ± 0.63
10 | AATGGTATAAACAATACACACATAATATATATATTG [CACACA_site4997] | 10.05 ± 0.085
11 | TTTTCTAAATTAATAATACACACTTGCTAAAATCAT [CACACA_site3207] | 10.1 ± 0.19
12 | ACTGCGTTTTTACACGCGCACTGCAATGAACAATAT | 10.3 ± 0.2
13 | TATGTAACAAAAAAAAGTACACATATATATAGTGTA [XGTACX_site7772] | 11.6 ± 0.85
14 | AAGATAATCACAAAATGTACAGGAAATATGACAACC [XGTACX_site3607] | 11 ± 0.5
15 | TTTAAATATTACATATGTACTTATAAATATATATAT [XGTACX_site1284] | 11.2 ± 0.64
16 | AAGGAATAGGCATATACACACAGGTACAGATATATA [CACACA_site4402] | 11 ± 0.46
17 | AAAAAAAAAAAAAACACACAAATCATAAATAAATAT [CACACA_site6362] | 10.1 ± 0.36
18 | ATTATGTGCCAATACACACACACATATATATATATA [CACACA_site468] | 10.2 ± 0.13
19 | TAAAATATGTCATGTGGTACATGAATAGCTTTTATT [XGTACX_site3809] | 11 ± 0.64
20 | AAAAAAAAAATTGAAAGTACAAATATGTATTATATA [XGTACX_site2455] | 10.8 ± 0.53
21 | TAATAGTATATAAAAAGTACATAATAAGATATGAAA [XGTACX_site1000] | 11.3 ± 0.83
22 | TTATTTTTTATTATGTGTACATAACATCGCGATACA [XGTACX_site4359] | 11.5 ± 0.98
23 | AAAACTTGTCAGAATGGACACACGAATTAAAGGCCT [CACACA_site1215] | 10.5 ± 0.33

Row | Sequence | gcPBM binding intensity (ln)
24 | TATTTATACATACATACACACATATAGATTTATATT [CACACA_site7851] | 10.1 ± 0.13
25 | CAACATTCGTATATCACACATTTGCATGTTGTCAAT [CACACA_site4470] | 10.3 ± 0.25
26 | GATTTAGTTATTTAAACATGCAATTTATATAGAATT [TGCATGCA_site47] | 9.98 ± 0.3
27 | ATAATCACAAATAATTGTACATTTTGTTATATATAT [XGTACX_site7704] | 10.8 ± 0.45
28 | AAAAATTTCATATTCACACACAAAAAAAAAAAATAT [CACACA_site1592] | 10 ± 0.2
29 | TGATATATATATATATATATAACACACGCAAAAAAA [TGCATGCA_negctrl_site240] | 9.995 ± 0.049
30 | TATGTCAAATATATATGTACACAAATATACTATTAA [XGTACX_site2643] | 11.4 ± 0.91
31 | AATATATATATTAGAGTGCACATAATTATTTGCTAA | 10.2 ± 0.24
32 | ATAAAATATATATTAGTGCACTAAAGGAAAAAAAAT | 10.5 ± 0.32
33 | ATTTAAATAATATTCACACACAAAATTATATTTTAA [CACACA_site219] | 9.78 ± 0.042
34 | AAGTTTTCTTAAAATTGTACTTTTCAAAAATAATCT [XGTACX_site277] | 11.3 ± 0.85
35 | TTTTTAATTTATTGTGTGCACACAACTATGAGTTTT | 10.6 ± 0.47
36 | ATATGATATATATTCGGTACACATATATATAAAGAG [XGTACX_site430] | 11.2 ± 0.71
37 | TTTTCTAAAGTAAGTTAAGATATGCAAAAAAAAGAA [GTGCAC_negctrl_site242] | 10.1 ± 0.26
38 | TATTTTTTTTTTTAATGTACAAACAAATTATGTTGG [XGTACX_site2873] | 10.8 ± 0.57
39 | ATTTTTTTTATGAGGTGTACTCATATAATAACTACA [XGTACX_site5074] | 11.6 ± 0.84
40 | ATGAACTATATTAAATCACACATTATCATTTTATAT [CACACA_site4989] | 9.81 ± 0.085
41 | AATAAAAATTGGTAGGCACACATGGAACTATTAAAA [CACACA_site1257] | 10.35 ± 0.078
42 | TATAAAAGGTAAGAGTGTACAAGTAAAAAATTTTTA [XGTACX_site771] | 11.2 ± 0.7
43 | TATATATTTTAAAATAGTACATATTATATAACCCAT [XGTACX_site2194] | 11.2 ± 0.71
44 | TATCCCTTAGAATACACACCCATATGAGCGTGAACT [CACACA_site2951] | 10.1 ± 0.11
45 | TCGTATATGGATTTTGCACACAATTATAATTTAAAT [CACACA_site868] | 10.16 ± 0.057
46 | ATATATATATATATATGTACACATTAATGTTTTTTT [XGTACX_site167] | 11.4 ± 0.95

Row | Sequence | gcPBM binding intensity (ln)
47 | AAAATAAGAAATTGAAAAATTGAAAACAAAATTAAA [CACACA_negctrl_site1285] | 9.635 ± 0.092
48 | TAAAAAATAAAAAAAGCACACACATATATATATATA [CACACA_site8567] | 10.1 ± 0.53
49 | TAATAAAACATATATACACACATTATAAATACATAT [CACACA_site5014] | 10 ± 0.13
50 | ACTACTCCATTAAGTAGTACACAAAAAAAAAAAATA [XGTACX_site7031] | 11.8 ± 1.1
51 | TTACAAATGTTTTACACACACATAATTGTATCAATT [CACACA_site6147] | 10.05 ± 0.071
52 | CCATTTTAAATATGCACACAGATGCACTAACCCATT [CACACA_site1883] | 10.4 ± 0.3
53 | TATAAATAAAAACACACACACATATATATATATATA [CACACA_site2319] | 10.1 ± 0.47
54 | GTTTGTAAATATTTTACACACATATATATATATATA [CACACA_site1075] | 10.1 ± 0.37
55 | ATATCCTTAAAAGATACACACATATGAATATTTTGT [CACACA_site3847] | 9.92 ± 0.014
56 | TTTATACTTGTAAATGCACACATAAGATGCGACTAA [CACACA_site8662] | 10.2 ± 0.28
57 | ATACTTTTAAATTGATGTACTTTATTTATAAGGTGA [XGTACX_site6746] | 11.3 ± 0.91
58 | TTGATTACTAGAAATGCACACACTGATAAAATAAGG [CACACA_site4134] | 10.4 ± 0.23
59 | TTGCTCACAAGAAGCACACAAAAAAAGAAAAAAAAA [CACACA_site4047] | 10 ± 0.36
60 | ATTATAGACACGCGCACACACAACAAAAAAAAAAAA [CACACA_site9180] | 10.5 ± 0.67
61 | TTGGGGTATCTTCCTATGCACACTTGTTATGTACTA [CACACA_site831] | 11.1 ± 0.65
62 | GAAAATTTCTTATTTTGTACACACAATAAATATTCA [XGTACX_site3267] | 11 ± 0.69
63 | TTCACAAAATATTATTGTACATTAAAATATTTATAT [XGTACX_site2535] | 10.9 ± 0.45
64 | TATAAAACGGATGAACAACAAATCATATGGCACAAA [TGCATGCA_negctrl_site608] | 10.23 ± 0.099
65 | TACATGATATATCACACACACATATAAATATATATA [CACACA_site2831] | 9.815 ± 0.007
66 | TTATATATTTATTTATGTACATATTTTTTTATTATA [XGTACX_site6115] | 11.4 ± 0.72
67 | TAAATATGTATTCATACATGCACATATATATATATA [TGCATGCA_site584] | 10.4 ± 0.76
68 | GTTTTTTTATTTCATCGTACAAAAAAGAAGGCTTTA [XGTACX_site5291] | 10.7 ± 0.62
69 | GGTGTTAAAAAATACACACACAAAAAAAAAAAAAAA [CACACA_site138] | 9.95 ± 0.51

Row | Sequence | gcPBM binding intensity (ln)
70 | GGTAAGTACGACTTGACACACATACCCATATATATA [CACACA_site4837] | 11.1 ± 0.74
71 | ACAGTATCTGGTAGCTGTACGAGTCGTAGAGTGCAG [XGTACX_site2015] | 11.2 ± 0.67
72 | GCGAAATATTATTATAGTATACAAATACTTCTATGA [CACACA_negctrl_site197] | 9.91 ± 0.099
73 | TTTTTTTAATTTGGTTGTACTTAAAAAAAAAACAGA [XGTACX_site5788] | 11.5 ± 1.1
74 | TTTTTTATTATATAATTGTATATAAAATTATAATTT [GTGCAC_negctrl_site733] | 9.89 ± 0.13
75 | TACCTAGGATTAAAGTGTCCACATAATTTAAATAAT [XGTACX_site6736] | 11.2 ± 0.54
76 | TTCTTCTGTTTTATTACACACCATTTTGTGGATACA [CACACA_site5181] | 10.3 ± 0.16
77 | TATATAAATAGACACACACACATATAAATATAAATA [CACACA_site6503] | 10.1 ± 0.2
78 | ATTCATCTATTTTGTAGTACTAAATATATATCTACT [XGTACX_site8790] | 11.2 ± 0.76
79 | AATAAACATATATACACACACAAAAAAAAAAACATA [CACACA_site424] | 10.1 ± 0.13
80 | TAGATGTATGTACATACACACATATATAAATAAATA [CACACA_site1788] | 11.2 ± 0.87
81 | TAACTTGAATGGATATGTACATATATATATATATAT [XGTACX_site5990] | 11.1 ± 0.49
82 | TATAGATACAGATACACACACACACCGACATATATA [CACACA_site5832] | 10.1 ± 0.18
83 | TATAACAAGTTATAAAGTACAAATGTTGAATTTTAT [XGTACX_site4673] | 10.9 ± 0.69
84 | TCGGGAGGGGGGAAGCGTACATATATAAAATTATTA [XGTACX_site4683] | 11.7 ± 0.76
85 | TAAAAATTAATATAAACACACAAAAATTAATAAATA [CACACA_site381] | 9.73 ± 0.22
86 | GAATGTATATTCATGTATTTATTATTATTATTATTA [XGTACX_negctrl_site156] | 9.535 ± 0.092
87 | ATATGGCTAAAAGTTGCACACACACTAATAAAAAAA [CACACA_site9082] | 10.4 ± 0.48
88 | TATGTATTTATATTAACACACAAAAAAAAAAAAAAA [CACACA_site5070] | 9.82 ± 0.52
89 | ATTATTTTACTAAAAGATATTCCTTTTTTTTGTACT [CACACA_negctrl_site998] | 9.94 ± 0.26
